In the supplement of paper PMC11417369:
This is one part of the list.

tested on: PfHDP1 homeodomain (GST-tagged); assay: gcPBM binding intensity (ln(normalized median fluorescence intensity)); higher = stronger DNA binding
How it was run: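 Alexa488 anti-GST antibody, scanned at 488 nm, detected GST-tagged P. falciparum DNA-binding domains that had been expressed in E. coli and incubated for 1 h on an Agilent 4 × 180k array. The array carried primer-extended double-stranded 36-bp intergenic genomic probes and negative controls. Binding intensity is the highest Masliner-normalised natural-log median intensity across replicate spots of either orientation of each probe.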

| Sequence | gcPBM binding intensity (ln) |
| --- | --- |
| AATCATTTTATTATCCTAACAAAAAAAAAATATATT [CACACA_negctrl_site115] | 6.09 |
| ACAACGCGTTAAATGTGTACATATTTATAAGTATAT [XGTACX_site8777] | 6.48 |
| AAAAAAAAAAAAAAATTAAAGTAATGGAAAAAAAAA [CACACA_negctrl_site1666] | 6.11 |
| TATATTATAAACATATGTACATATGTATAAATACAT [XGTACX_site722] | 6.48 |
| ATTATTAATATTATATGTACGCACTATATCAAGGCT [XGTACX_site6468] | 6.78 |
| AACATATATATATACACACACATATATATATGAAAT [CACACA_site279] | 6.73 |
| TATACCAATGAATGAGTGCAAAGAAGATAAGGAAAA | 8.72 |
| AAGGTATTTATAACTACACACTTATTTATAACCTAA [CACACA_site6194] | 6.11 |
| AATAAAATGAAATGAAATAAAAAAAAAAAAAAAATG [TGCATGCA_negctrl_site305] | 6.39 |
| ACTTATTGTGGTTTTGCATGTAGCATTTTTACATAC [TGCATGCA_site247] | 7.08 |
| TATGAACATATATATTGTACAAAATTATAATTTCAA [XGTACX_site6406] | 6.41 |
| AGTTCAGAATTGAATAGTACATAAATATAACAAAAT [XGTACX_site650] | 6.76 |
| AAGCGAATCTATATCACACACAAAAAAATCAGACTA [CACACA_site7072] | 6.71 |
| AACTGATATTAATTCTGTACCTATACGTTATATGTT [XGTACX_site1003] | 6.32 |
| TTGTCATTATTATATTGTACAATAAGTATTAAAGAA [XGTACX_site1205] | 7.07 |
| TATATATATTCTTTGTGTACTCATATAAGGGTAGAA [XGTACX_site8121] | 6.87 |
| AATCAATATTATATATGTACTTATTTTCACTTTTGC [XGTACX_site1775] | 6.56 |
| TATTTAAATTAATATTGTACATATATTTATAATATA [XGTACX_site6109] | 6.42 |
| TTTATTTATATAATTACACACATATATACACAAATG [CACACA_site8903] | 6.83 |
| AAATATATTATATATGCATGCGCCAAGATTTATATA [TGCATGCA_site770] | 6.66 |
| AATAAACAAATAAATAAATAAACAGATAAATAAATC [CACACA_negctrl_site920] | 6.51 |
| GAGAACATTGATACACGTACATAAGTTATAAGTATT [XGTACX_site7665] | 6.26 |
| AAGCATCCTACTGATTGTACATATATATATATATAT [XGTACX_site2150] | 9.18 |

| Sequence | gcPBM binding intensity (ln) |
| --- | --- |
| TAATATATATAACAAGTGCAAAAAAATATAGATATT [GTGCAC_site9625] | 8.6 |
| TTAGGTTATAAATACACACACAAAAGAAAAAAAAAA [CACACA_site5625] | 6.71 |
| ACCCAAAATATATTCACACAAAAAATATTAAAAATA [CACACA_site5433] | 6.4 |
| TTTGAAAAAAAATATTGTACACGTGAATAAAGTATT [XGTACX_site644] | 6.68 |
| AAAAATAAATATACATGTACATAATAATAATATATA [XGTACX_site8359] | 6.57 |
| TTGCATCTATTTTTGAGTACACAATGAGAATAATTA [XGTACX_site7171] | 6.75 |
| TTATTATATATGTTCACATAAATACATAAATATATA [GTGCAC_negctrl_site529] | 6.2 |
| TTAAAAAAGTAATTAACACACAATAATGTAATGCAT [CACACA_site4176] | 6.53 |
| AAAAAAAAAAGACACACACACACATACACATACATA [CACACA_site7362] | 7.1 |
| TATATATATATATATATATATATATATATAATTTGA [XGTACX_negctrl_site3] | 9.41 |
| TATTTTATTTTCCGAAGTACAAAAGCAAAAAAAAAC [XGTACX_site103] | 6.84 |
| TATATTTATATAATATGTACATATTTTTTAATATTT [XGTACX_site3834] | 6.41 |
| AGCTAAAATATTTTTGCACACGATTTTTTTTTTTTT [CACACA_site1140] | 9.82 |
| CGCGAACATACATACACACACATATATATATATGTA [CACACA_site205] | 6.98 |
| TTTTTTTTTTTTTGAACACACATTATTAACTTTTAT [CACACA_site6281] | 6.38 |
| AAAAAAAAGTTATATACACACATATAAATATAAATA [CACACA_site6683] | 6.39 |
| TATATATTTTATATATGTACATATTTATATGTTTCT [XGTACX_site1818] | 6.28 |
| AAAAATATTAAAAGGCGTACAATACCTGTATGCAAC [XGTACX_site6069] | 6.12 |
| CATGTAAAATATTAAAGTACATGATTATATATATAT [XGTACX_site7486] | 8.65 |
| TATAAATTTATACCAGTGCATTTTGAAATATATATA | 8.42 |
| TGGAACCATAAAAAGTGTACACATATAAAAAATATG [XGTACX_site96] | 7.25 |
| ATAATATGAGTCCCACAAAATAGACCATACGAATAT [CACACA_negctrl_site50] | 6.3 |
| AAATAATACATTCGTACTACACATATATATTAAATA [XGTACX_site7806] | 6.59 |

| Sequence | gcPBM binding intensity (ln) |
| --- | --- |
| TAAAATGTTATAAGAACATGCAATTCCTTTTATTAT [TGCATGCA_site408] | 6.09 |
| AATATATACATATATACACACACATATATATATATA [CACACA_site8907] | 9.2 |
| ATTTTAATTTTGTATACACACATTTGAATTATTAAT [CACACA_site3528] | 6.87 |
| TATATGTCCATATTTCCACACACATATTATTTTTAT [CACACA_site9266] | 6.81 |
| AGAGAGAACGGTATAACATGCGATAAATTTTAGAAG [TGCATGCA_site357] | 6.58 |
| TTTTTTCAATAAATAATCGTATATTGAATAATAATA [CACACA_negctrl_site822] | 6.08 |
| ATGCACGGAAAAATATGTACTTAATTTCAATAATAT [XGTACX_site8311] | 7.65 |
| CGGACATACTAACGGACACACGTAAGAAAAAAAAAG [CACACA_site4504] | 6.4 |
| TATTAATTTTTCCTTTTTTTTTTACCCCTTTGTACA [CACACA_negctrl_site947] | 6.15 |
| ATATATTATATTATATGTACTTAAAAAAGTGCAAAG [XGTACX_site318] | 9.16 |
| TATATTCAATTTTTGGTGCGTAAATTAATACAAACA [GTGCAC_site9764] | 8.27 |
| CACATACACCCATACACACACATATATATTAAGATA [CACACA_site4459] | 7.47 |
| AATACATACAGACACACACACACATATATATATATA [CACACA_site3558] | 9.1 |
| AAACTTAATATCGGTACACACACAAGATAAGAATTA [CACACA_site8200] | 6.48 |
| ATATATATATAGTGCACACTTAAGAATATAAAGAGG [CACACA_site1151] | 10.7 |
| CTATAAATATTTTATTGTACACACTTTTTATGAATG [XGTACX_site6711] | 6.92 |
| AAAATTTTTAGTTATACACACAACATAGAAAATATT [CACACA_site328] | 6.55 |
| TTACATGTAAAAGGTACACACATTATGTATACAAAT [CACACA_site1117] | 6.79 |
| TTTTTTTTTTTTTTTTGTCCGTACTGCTTTGTGTTT [XGTACX_site3687] | 6 |
| ATGATAAACATGGATACACACATATAGATTGCATAT [CACACA_site6843] | 7.08 |
| TTATTAAATTCATAAGTGCATTTATGATTAATTTTT [GTGCAC_site9749] | 8.43 |
| ATTTCTCTATCGTAATGTACATAAAAAAGAAAAACA [XGTACX_site6374] | 6.63 |
| ATATATATTAACAATACACACGTGTATACCTTATTG [CACACA_site5258] | 6.92 |

| Sequence | gcPBM binding intensity (ln) |
| --- | --- |
| TTCATCTTAAAATTGGGTACATAACACAAAGTATAA [XGTACX_site1894] | 6.34 |
| CCTATAAATGCATTCACACATATATATTTATATTAT [CACACA_site6086] | 6.87 |
| TCTAATTACAAAAACATACACACAAAAAAAAAAAAA [CACACA_site3783] | 6.52 |
| ATGTACAAAATAAGCACACACAAAAAAAAAAAAAAT [CACACA_site2998] | 6.45 |
| TCAAAAATAAAGATCACACATATATATATATATATA [CACACA_site4381] | 9.54 |
| CTTAATTTAATGAAATGTACATATAAAAATATTATA [XGTACX_site3303] | 6.37 |
| TTTGATCGATGGATTTAACACACAAAAAAAAAAAAA [CACACA_site9279] | 6.32 |
| GTAAGAAACAGACACACACACATATATATATATATA [CACACA_site794] | 9.42 |
| AATAATTTTATCGGTACACACTGTATGCATAATATT [CACACA_site4364] | 7.02 |
| GAACAGTTTGTTTAGTGTACTTTTTTTTTTTTTTTT [XGTACX_site8881] | 6.46 |
| TTTATGACTTGAAAAAGTACACATATATTTATGCAA [XGTACX_site5451] | 6.31 |
| AATATAGAAATAAATATATCACATTTGTGTTTAAAC [XGTACX_negctrl_site68] | 6.15 |
| TACCAAATTTATTCTTGTACATATATATATATATAT [XGTACX_site4832] | 9.29 |
| TATATATATATACCTTGTACTTACATTCGCATATAA [XGTACX_site2466] | 9.08 |
| AAAAAAAAAAAAAAAGCACACACACCGATGTGTATA [CACACA_site8224] | 6.63 |
| CCATTACCATATAAAACACACAAACATACATACATA [CACACA_site5952] | 6.71 |
| GTATAATTATGTGCACGTACATATTTTATTATATAT [XGTACX_site8586] | 10.9 |
| ACATAAATATATGACACACACACATATTATATATAT [CACACA_site3065] | 7.1 |
| TTGTTTTCTTTTTCTTTTCTTTTTCTTTTTTCTTTT [GTGCAC_negctrl_site629] | 6.08 |
| TATATATATATAAAGACACACATCTATAGAATGTTA [CACACA_site2557] | 8.9 |
